The source of these data is the antibiotic and cytotoxicity screens of Wong et al. (2023).

Assay [1] deals with HSkMC (human skeletal muscle cells). The assay can be described thus: cytotoxicity call (relative viability < 0.9). The settings on record: 10 µM.
Assay [2] deals with HepG2. Put plainly: cytotoxicity call (relative viability < 0.9). As to conditions: 10 µM.
Assay [3] deals with S. aureus RN4220. Put plainly: growth inhibition call (relative growth <= 0.2). The settings on record: 50 µM.

Molecules are shown by their SMILES. Some of the results follow.

For `CN(C)CCCNC(=O)C[C@@H]1C=C[C@@H](NC(=O)Cc2cccnc2)[C@H](CO)O1`, the cytotoxicity call in assay [1] and in assay [2] was “inactive” in each case. For the same compound, the growth inhibition call in assay [3] is “inactive”.

Regarding `C[C@H](CO)N1C[C@H](C)[C@@H](CN(C)S(=O)(=O)c2cn(C)cn2)Oc2c(NC(=O)Cc3ccccc3)cccc2C1=O`, the cytotoxicity call in assay [1] and in assay [2] was “inactive” in each case. In assay [3], the growth inhibition call was “inactive”.

In the case of `COCC#Cc1ccc2c(c1)O[C@@H](CN(C)C(=O)C1CCCCC1)[C@H](C)CN([C@H](C)CO)S2(=O)=O`, the cytotoxicity call in assay [1] and in assay [2] was “inactive” each time. Besides, the growth inhibition call in assay [3] is “inactive”.

On to `COc1ccc2c3c(n(c2c1)C)[C@@H](CO)N(C[C@]13CCN(CC1)C(=O)c1ccccc1)C(=O)Nc1ccccc1F`, for which the cytotoxicity call in assay [1] and in assay [2] was “inactive” each time. The growth inhibition call in assay [3] is “inactive”.

For the compound `O=C(C[C@@H]1CC[C@@H]2[C@H](COC[C@H](O)CN2S(=O)(=O)c2ccc(F)cc2)O1)N[C@@H]1CCN(Cc2ccccc2)C1`, the cytotoxicity call in assay [1] and in assay [2] was “inactive” each time. In addition, in assay [3], the growth inhibition call is “inactive”.

Regarding `Cc1noc(C)c1NC(=O)Nc1ccc2c(c1)C(=O)N([C@@H](C)CO)C[C@@H](C)[C@H](CN(C)Cc1ccc(-c3ccccc3)cc1)O2`, the cytotoxicity call in assay [1] and in assay [2] was “inactive” throughout. Also, in assay [3], the growth inhibition call is “inactive”.

Turning to `Cc1ccc(S(=O)(=O)Nc2ccc3c(c2)C(=O)N([C@H](C)CO)C[C@H](C)[C@H](CN(C)C(=O)Nc2ccc4c(c2)OCO4)OCCCC[C@H](C)O3)cc1`, the cytotoxicity call in assay [1] is “inactive”. Moreover, the cytotoxicity call in assay [2] is “active”. The growth inhibition call in assay [3] is “inactive”.

As to `Cc1ccc(S(=O)(=O)Nc2ccc3c(c2)C(=O)N([C@H](C)CO)C[C@H](C)[C@H](CN(C)S(=O)(=O)c2ccc(F)cc2)O3)cc1`, the cytotoxicity call in assay [1] and in assay [2] was “inactive” throughout. Moreover, the growth inhibition call in assay [3] was “inactive”.

As for `CCCC(=O)Nc1ccc2c(c1)OC[C@@H](C)N(Cc1ccc(-c3ccccn3)cc1)C[C@H](C)[C@@H](OC)CN(C)C2=O`, the cytotoxicity call in assay [1] and in assay [2] was “inactive” each time. Further, the growth inhibition call in assay [3] was “inactive”.

For `C[C@@H]1CN([C@H](C)CO)C(=O)c2cc(NC(=O)Cc3cn(C)c4ccccc34)ccc2O[C@H]1CN(C)C(=O)Nc1cccc2ccccc12`, the cytotoxicity call in assay [1] is “active”. Moreover, in assay [2], the cytotoxicity call was “inactive”. In assay [3], the growth inhibition call is “inactive”.

Take `CO[C@H]1CN(C)C(=O)c2ccc(NC(=O)Nc3cccc(Cl)c3)cc2OC[C@@H](C)N(C(=O)Nc2c(C)noc2C)C[C@@H]1C`: the cytotoxicity call in assay [1] and in assay [2] was “inactive” throughout. Moreover, the growth inhibition call in assay [3] was “inactive”.

As for `C[C@@H]1CN([C@@H](C)CO)C(=O)c2cccc(NS(=O)(=O)c3cccs3)c2O[C@H]1CN(C)Cc1ccncc1`, the cytotoxicity call in assay [1] and in assay [2] was “inactive” in each case. In assay [3], the growth inhibition call was “inactive”.

As for `OCc1ccc2c(c1)OCCO2`, the cytotoxicity call in assay [1] and in assay [2] was “inactive” in each case. Besides, the growth inhibition call in assay [3] was “inactive”.

With `CCCNC(=O)Nc1ccc2c(c1)OC[C@H](C)N(C(=O)C1CCOCC1)C[C@H](C)[C@@H](OC)CN(C)C2=O`, the cytotoxicity call in assay [1] and in assay [2] was “inactive” in each case. In addition, the growth inhibition call in assay [3] is “inactive”.

`Cc1cccc(S(=O)(=O)N2C[C@@H](O)COC[C@@H]3O[C@@H](CC(=O)NCc4ccncn4)CC[C@H]32)c1`: the cytotoxicity call in assay [1] and in assay [2] was “inactive” in each case. The growth inhibition call in assay [3] is “inactive”.

With `CC(C)NC(=O)Nc1ccc2c(c1)C(=O)N([C@@H](C)CO)C[C@@H](C)[C@H](CN(C)S(=O)(=O)c1cn(C)cn1)OCCCC[C@@H](C)O2`, the cytotoxicity call in assay [1] and in assay [2] was “inactive” in each case. Besides, the growth inhibition call in assay [3] was “inactive”.

Regarding `C[C@@H]1CN([C@H](C)CO)C(=O)c2cc(NC(=O)C3CCCCC3)ccc2O[C@@H]1CN(C)Cc1ccc(C(=O)Nc2ccccc2N)cc1`, the cytotoxicity call in assay [1] and in assay [2] was “inactive” each time. Moreover, the growth inhibition call in assay [3] is “inactive”.

`CC(C)c1ccc(/C=C/C(=O)Nc2nc3ccccc3s2)cc1`: the cytotoxicity call in assay [1] and in assay [2] was “inactive” in each case. Besides, the growth inhibition call in assay [3] is “inactive”.

With `Cc1cc(C(=O)Nc2cccc3c2O[C@H](CN(C)C(=O)Nc2ccccc2)[C@H](C)CN([C@H](C)CO)C3=O)n(C)n1`, the cytotoxicity call in assay [1] and in assay [2] was “inactive” each time. In addition, the growth inhibition call in assay [3] is “inactive”.

Regarding `C[C@H]1CCCCO[C@H](CN(C)C(=O)Nc2ccc(F)cc2)[C@@H](C)CN([C@@H](C)CO)C(=O)c2cc(NS(=O)(=O)c3ccc(Cl)cc3)ccc2O1`, in assay [1], the cytotoxicity call was “inactive”. Further, the cytotoxicity call in assay [2] was “active”. In addition, the growth inhibition call in assay [3] was “inactive”.

Take `Cn1nnc2c1CCN(C(=O)CS(C)(=O)=O)[C@@H]2COCC1CC1`: the cytotoxicity call in assay [1] and in assay [2] was “inactive” each time. In assay [3], the growth inhibition call is “inactive”.

For the compound `Cc1ccc(S(=O)(=O)Nc2ccc3c(c2)CC(=O)N([C@H](C)CO)C[C@H](C)[C@H](CN(C)S(=O)(=O)c2ccc(F)cc2)O3)cc1`, the cytotoxicity call in assay [1] and in assay [2] was “inactive” throughout. Besides, the growth inhibition call in assay [3] was “inactive”.

In the case of `O=C(C[C@@H]1C[C@H]2c3cc(NS(=O)(=O)c4ccc(F)cc4)ccc3O[C@H]2[C@@H](CO)O1)NCCc1ccccc1`, the cytotoxicity call in assay [1] and in assay [2] was “inactive” each time. For the same compound, the growth inhibition call in assay [3] is “inactive”.

For `C[C@@H]1CCCCO[C@@H](CN(C)C(=O)Nc2ccc3c(c2)OCO3)[C@H](C)CN([C@@H](C)CO)C(=O)c2cc(NS(=O)(=O)c3cccs3)ccc2O1`, the cytotoxicity call in assay [1] and in assay [2] was “inactive” in each case. In assay [3], the growth inhibition call was “inactive”.

For the compound `C[C@H](CO)N1C[C@H](C)[C@@H](CN(C)Cc2ccncc2)Oc2ccc(NC(=O)Cn3cnnn3)cc2CC1=O`, the cytotoxicity call in assay [1] and in assay [2] was “inactive” in each case. Besides, the growth inhibition call in assay [3] is “inactive”.

As for `C[C@@H]1CN([C@@H](C)CO)C(=O)c2cc(NC(=O)Nc3ccccc3)ccc2O[C@@H](C)CCCCO[C@H]1CN(C)C(=O)Nc1cccc2ccccc12`, the cytotoxicity call in assay [1] and in assay [2] was “inactive” throughout. The growth inhibition call in assay [3] was “inactive”.

For `Cc1ccc(S(=O)(=O)Nc2ccc3c(c2)C(=O)N([C@@H](C)CO)C[C@@H](C)[C@H](CN(C)C(=O)Nc2cccc4ccccc24)O3)cc1`, the cytotoxicity call in assay [1] and in assay [2] was “inactive” each time. The growth inhibition call in assay [3] was “inactive”.
